# According to publication PMC6919601, “Identification of Plasmodium dipeptidyl aminopeptidase allosteric inhibitors by high throughput screening” (PLoS ONE, 2019):
# Screen size: about 110,000 compounds; about 230 (0.21%) showed an effect of 50% or more. The list shows a part of the results.
# Molecular target: DPAP1 (Plasmodium falciparum, UniProt Q8IIJ9)
# Experiment: primary screen, percent inhibition; read by cleavage of a fluorogenic dipeptide substrate; higher = more effect of the substance
# Design: species or system P. falciparum D10 trophozoite lysates; single well
# 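Also: 30 min substrate incubation versus DMSO and 10 µM JCP410 controls.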
# DPAP1, sequence (Q8IIJ9 whole entry, looked up): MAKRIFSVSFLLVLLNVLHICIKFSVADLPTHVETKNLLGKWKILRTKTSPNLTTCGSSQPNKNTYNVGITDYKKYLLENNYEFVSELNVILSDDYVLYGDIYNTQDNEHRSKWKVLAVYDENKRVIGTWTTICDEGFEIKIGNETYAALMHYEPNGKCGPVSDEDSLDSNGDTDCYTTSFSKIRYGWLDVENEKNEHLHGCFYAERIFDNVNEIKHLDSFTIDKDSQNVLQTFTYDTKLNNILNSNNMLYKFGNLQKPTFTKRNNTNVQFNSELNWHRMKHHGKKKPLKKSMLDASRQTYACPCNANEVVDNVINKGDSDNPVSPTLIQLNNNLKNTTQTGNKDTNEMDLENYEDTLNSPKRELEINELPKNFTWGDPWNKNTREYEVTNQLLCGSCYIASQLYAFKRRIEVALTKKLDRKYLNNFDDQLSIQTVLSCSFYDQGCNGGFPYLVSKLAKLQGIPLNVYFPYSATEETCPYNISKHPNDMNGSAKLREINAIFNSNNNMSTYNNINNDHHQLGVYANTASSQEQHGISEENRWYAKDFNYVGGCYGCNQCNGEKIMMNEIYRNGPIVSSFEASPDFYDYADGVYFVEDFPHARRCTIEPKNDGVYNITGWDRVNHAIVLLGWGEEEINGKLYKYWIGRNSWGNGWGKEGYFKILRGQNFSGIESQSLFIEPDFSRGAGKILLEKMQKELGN
row,SMILES,% Inhibition @ 10 uM [%]
1,CCOCCCNC(=O)C(c1ccccc1)N(Cc1ccc2c(c1)OCO2)C(=O)CNC(C)=O (centres unmarked),-1.2
2,Cc1ccc2ncnc(-c3ccccc3)c2c1,0.392
3,CCOc1ccc(-c2nc3s/c(=C\c4ccccc4F)c(=O)n3n2)cc1,3.8
4,CCOc1ccc2ccccc2c1/C=C1\N=C(c2ccc3c(c2)OCO3)OC1=O,1.76
5,CC(C)(CCO)Nc1ncnc2onc(-c3ccc(F)cc3)c12,1.58
6,CC(C)(C)N1C(=O)NC2C1NC(=O)N2C(C)(C)C (centres unmarked),-3.66
7,CC1(C)CC(=O)C2=C(C1)OC(N)=C(C#N)C2c1ccc(F)c(Br)c1 (centres unmarked),0.317
8,COCCNc1ncnc2c1c(-c1ccccc1)cn2-c1cccc(C)c1,-0.757
9,CC(NC(=O)/C=C/c1cccc([N+](=O)[O-])c1)c1ccccc1 (centres unmarked),-2.51
10,Cc1c(C(=O)O)cccc1-n1c(C)cc(/C=C2\NC(=O)NC2=O)c1C,3.47
11,CC(=O)C1=C(C)N=C(S)NC1c1cc(Br)ccc1O (centres unmarked),-8.28
12,Cc1ccc(C)c(Cn2c(C)c(CNCCCc3ccccc3)c(C(=O)O)c2C)c1,1.41
13,COc1cc2c(cc1OC)C(COc1ccccc1OC)N(C(=O)C(C)C)CC2 (centres unmarked),1.42
14,C=CCN(CC=C)S(=O)(=O)c1ccc(NC(C)=O)cc1,6.08
15,O=C1c2ccccc2C(=O)N1Cc1nc2ccccc2c(=O)n1CCCn1ccnc1,7.18
16,O=C1NC(=S)N/C1=C\c1cc(Cl)ccc1O,36.8
17,CN(C)CCN(Cc1ccccc1)c1ncnc2onc(-c3ccc(F)cc3)c12,-2.52
18,COc1ccc(-c2cc(C)no2)cc1S(=O)(=O)N(C)Cc1ccco1,4.69
19,CC1CCN(CCCNC(=O)CN2CCN(Cc3ccc(Cl)cc3)C2=O)CC1,0.128
20,CC1=C(C(=O)Nc2cccnc2)C(c2ccc(O)cc2)n2nc(SCc3ccccc3F)nc2N1 (centres unmarked),-0.363
21,CC(C)Oc1ccc(C(CC(=O)Nc2nccs2)c2ccccc2)cc1 (centres unmarked),-2.98
22,COc1ccc(-c2cc(C(F)(F)F)nc(N(C)Cc3ccccc3)n2)cc1OC,2.59
23,COc1ccc(-n2nc3c(c2NC(=O)c2ccc(C(=O)c4ccccc4)cc2)CS(=O)(=O)C3)cc1,5.35
24,O=C(NCc1ccc(Cl)cc1)c1cc(-c2ccc(Cl)cc2)[nH]n1,-0.356
25,Cc1cccc(NC(=O)CSc2nc3nc(C)cc(C)n3n2)c1,-4.56

row,SMILES,% Inhibition @ 10 uM [%]
1,CCOC(=O)c1cnc(SCc2cc(=O)n3ccccc3n2)nc1N,-3.01
2,CCCCn1c(=N)n(CC(O)c2ccc(C)cc2)c2ccccc21 (centres unmarked),0.313
3,C=CCC(NC1CCCCC1)c1ccco1 (centres unmarked),-3.46
4,COc1ccc(C(=O)N2CCN(c3ccc(Cl)cc3)CC2)c(OC)c1,5.63
5,Oc1nncc(NCc2ccccc2)c1Br,-4.84
6,CN1CCc2nc(S)c(C#N)c(-c3ccsc3)c2C1,-2.8
7,COc1ccc(OC)c(-c2cc(C(=O)O)c3cc(C)ccc3n2)c1,-0.318
8,CCc1ccc(C2NC(=O)c3ccccc3N2)cc1 (centres unmarked),2.33
9,CCc1ccccc1-n1c(C)cc(/C=C2/NC(=O)NC2=O)c1C,-1.06
10,O=C(O)CSc1cccc(C(=O)Nc2ccccc2C(=O)O)c1,1.42
11,CCOC(=O)C1CCCCN1Cc1ccccc1 (centres unmarked),-5.61
12,Cn1c(=O)c2sccc2n2c(CCC(=O)N3CCN(c4ncccn4)CC3)nnc12,-0.326
13,Cc1cccc(C)c1NC(=O)c1c(O)c2ccccc2n(CCC(C)C)c1=O,-9.21
14,COCCCn1c(CCC(=O)O)ccc1-c1ccc(OC)cc1,-1.15
15,COc1ccccc1C(NC(=O)Cc1ccccc1)c1c(O)ccc2ccccc12 (centres unmarked),-1.48
16,CCSc1ncc(Cl)c(C(=O)Nc2sc3c(c2C(=O)NCc2cccnc2)CCC3)n1,3.77
17,COc1cc2c(cc1OC)CN(C(=O)CSc1ncnc3sc(C)c(C)c13)CC2,-1.04
18,Cc1ccc(CNC(=O)CCc2nnc3n(CCc4ccccc4)c(=O)c4ccccc4n23)cc1,5.68
19,Cc1ccc(C(=O)N/C(=C/c2cccs2)C(=O)Nc2cccc(F)c2)cc1,-2.79
20,CCCOc1ccc(C2Nc3ccccc3C(=O)N2CCC)cc1OC (centres unmarked),-1.08
21,COCCN1C(=S)NC2c3cccc(OC)c3OC1(C)C2C (centres unmarked),-0.58
22,COc1ccc(N2C(=O)C(Cl)=C(Nc3ccc(C)cc3)C2=O)cc1,4.75
23,COc1ccc(CNC(=O)CN(c2cccc(OC)c2)S(C)(=O)=O)cc1,-1.43
24,CCn1c2ccccc2c2cc(CN3CCN(c4ccc(C)cc4)CC3)ccc21,1.54
25,CCOC(=O)N1CCN(c2c(NCCC(C)C)c(=O)c2=O)CC1,1.93

row,SMILES,% Inhibition @ 10 uM [%]
1,CC1CC(NS(=O)(=O)c2cccs2)CC(C)(C)C1 (centres unmarked),3.27
2,CC(C)CC(NC(=O)N1CCC(N2CCCCC2)CC1)C(=O)NCC#N (centres unmarked),-0.972
3,O=C(Nc1cccnc1)c1cc(=O)c2cc(Cl)ccc2o1,1.7
4,Cc1nn(-c2ccccc2)c(-n2cccc2)c1C(=O)N1CCC(C(=O)N2CC(C)CC(C)C2)CC1 (centres unmarked),-3.35
5,Oc1nnnc2c1sc1nc(-c3ccccc3)cc(-c3ccco3)c12,-0.808
6,COc1ccc(COC(=O)C2=C(C)NC(=O)CC2c2cc3c(cc2Br)OCO3)cc1 (centres unmarked),-4.16
7,COCCCNC(=O)COc1ccc(-c2ccc(C#N)cc2)cc1,-1.59
8,O=C(NCc1ccc2c(c1)OCO2)c1nc(Cn2c(C(F)(F)F)nc3ccccc32)no1,2.62
9,CN(C)CCN(Cc1ccccc1)Cc1c(F)cccc1Cl,1.62
10,Cc1ccc(-n2nnc(-c3nc(-c4ccccc4)no3)c2N)cc1C,-4.46
11,O=C(NCc1ccc2c(c1)OCO2)c1ccc(CS(=O)c2ccc(Cl)cc2)o1 (centres unmarked),-8.9
12,CCn1ncc(C(=O)Nc2cccc(Cl)c2)c1C,6.03
13,CC1CCN(S(=O)(=O)c2ccc(NC(=O)C3CC3)cc2)CC1,2.48
14,C=CCNC(=O)C1CC=CCC1C(=O)N(c1ccccc1)c1ccccc1 (centres unmarked),-0.0217
15,COc1ccc(CNC(=O)C2C3CCC(O3)C2C(=O)O)cc1 (centres unmarked),0.142
16,c1ccc2c(c1)ccn2Sn1cnc2ccccc21,6.94
17,Cc1cc2oc3c(c(=O)c2cc1C)C(c1cccc(O)c1)N(c1nccs1)C3=O (centres unmarked),-5
18,CC(C)CCNS(=O)(=O)c1ccc(Oc2ccc(S(=O)(=O)NCCC(C)C)cc2)cc1,1.17
19,CC(C)(C)c1ccc(C(=O)Nc2nnc(COc3ccccc3)s2)cc1,2.7
20,CCc1ccc(-n2nc(C)c3c(C(F)(F)F)cc(=O)n(CC(=O)NCc4ccco4)c32)cc1,-0.656
21,O=C(/C=C/C(=O)OCC(Cl)=C(Cl)Cl)Nc1ccc(Cl)cc1Cl,1.17
22,OC1COC(n2ccc3ccccc32)C(O)C1O (centres unmarked),-5.65
23,O=C(NCc1ccccc1F)C1CCN(C(=O)c2ccc(-n3ccc4ccccc43)s2)CC1,-4.33
24,C=CCn1c(C)c(/C=C2\SC(=O)N(CC)C2=O)c2ccccc21,-5.13
25,CCOc1ccc(S(=O)(=O)Oc2ccc(Cl)cc2)c2ccccc12,1.67

row,SMILES,% Inhibition @ 10 uM [%]
1,CC(C)(Oc1ccc(Cl)cc1)C(=O)N1CCN(C(=O)c2ccco2)CC1,0.0974
2,CC(=O)Nc1c(C)cc(C(c2ccc(F)cc2)c2cc(C)c(NC(C)=O)c(C)c2)cc1C,3
3,COCCCNC(=O)C1CCN(c2nnc(C)c3c(C)n(-c4ccc(OC)cc4)nc23)CC1,4.88
4,CC(C)NC(=O)C1CC(c2ccccc2F)=NO1 (centres unmarked),4.41
5,CCOc1cccc(C(=O)Nc2nnc(COc3ccc(C(C)CC)cc3)s2)c1 (centres unmarked),-1.93
6,COC(=O)c1ccc(COC(=O)N[C@@H](CC(C)C)C(=O)NCC#N)cc1,3.19
7,Cc1cc(C)n(CC(=O)N2CCC(C(N)=O)CC2)n1,-4.11
8,CN(C)CCCNc1c2ccccc2nc2ccccc12,-3.5
9,CC(C)CCN1C(=O)c2ccccc2C1C(=O)NCc1cccnc1 (centres unmarked),-1.29
10,CCOc1ccc(CCNc2nc3cc(OC)c(OC)cc3c3nc(-c4cccnc4)nn23)cc1,0.981
11,Cc1ccc(C(C)C)cc1OCc1nc2c3cnn(-c4cccc(F)c4)c3ncn2n1,-1.11
12,O=C(O)c1ccc(-n2nnnc2Oc2ccccc2C(=O)N2CCOCC2)cc1,3.73
13,COc1cc(-c2cc(NC(=O)c3noc4c3COc3ccccc3-4)on2)cc(OC)c1OC,4.86
14,COc1ccc(OC)c(CNC(=O)Cn2ncc3c2-c2ccccc2OC3)c1,2.6
15,Cc1nccn1C(=O)c1cc2c(O)nc3ccccc3c2s1,-2.16
16,COc1cccc(N(CC(=O)Nc2ccc(OC)c(OC)c2)S(C)(=O)=O)c1,3.72
17,CC(C)(C)c1[nH]nc2c1C(c1ccc(F)c(F)c1)C(C#N)=C(N)O2 (centres unmarked),-8.3
18,Cc1ccc(CN2C(=O)N/C(=C\c3ccc(-c4ccc(C(=O)O)cc4C)o3)C2=O)cc1,-3.14
19,CCn1cc(/C=C(\NC(=O)c2ccccc2)C(=O)NCCCn2ccnc2)c2ccccc21,-5.36
20,CC1=C(C#N)C(c2ccccc2)C2=C(O)CC(C)(C)CC2=N1 (centres unmarked),2.41
21,CCN1CCCC1CNC(=O)CCNC(=O)Cn1cnc2sc3c(c2c1=O)CCCC3 (centres unmarked),-2.4
22,CN(C)/C=N/c1ccc2nonc2c1,-4.5
23,Cc1nn(C)cc1C#Cc1ccccc1,3.31
